Data published in PubChem BioAssay (NCI).
Where “and” joins values, the source holds several entries; their conditions need not be identical. Identical values can stand only once.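 Following 48 hours of exposure in 96-well plates, responses at five concentrations were used to interpolate endpoints linearly. GI50 = concentration required for 50% inhibition of growth. Definition used: TGI = concentration required for complete inhibition of growth.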

Tested on: NCI-H322M lung
Experiment: DTP human tumour cell line panel, 48 h

Compound: CC1(C)OC(=O)C(=C2CC(c3ccccc3)c3ccccc32)C(=O)O1 (stereo unspecified)
- TGI: > 100 µM

Compound: CN1CCCN(C(c2ccccc2)c2ccc(Br)cc2)CC1 (stereo unspecified)
- GI50: 3.67 µM
- TGI: 22 µM

Compound: CCOC(=O)NC(=O)c1cn(CCSCCOC(=O)NCCCCCCNC(=O)OCCSCCn2cc(C(=O)NC(=O)OCC)c(=O)[nH]c2=O)c(=O)[nH]c1=O
- TGI: > 100 µM

Compound: COc1cc(NC(N)=NCCC(C)(C)c2ccc(C(F)(F)F)cc2)ncc1C#N
- GI50: 1.99 µM
- TGI: 3.57 µM

Compound: CCN(CC(COc1ccc2c(c1)[n+]([O-])nc(N)[n+]2[O-])OC(C)=O)C(C)=O (stereo unspecified)
- TGI: > 100 µM

Compound: Cc1cc(-c2nc3cc(F)c(F)cc3s2)ccc1N
- TGI: > 100 µM

Compound: COc1ccc(/C(C)=N/NC(N)=S)c(OC)c1
- TGI: > 100 µM

Compound: N#Cc1c2nc3ccccc3nc2n2ccc3ccccc3c12
- TGI: > 100 µM

Compound: Cc1n[nH]c(=O)n1N1C(=O)c2ccccc2C1=O
- TGI: > 100 µM

Compound: CSc1nc2c(c(=O)[nH]1)C(c1ccc(Cl)cc1)C1=C(N2)/C(=C/c2ccc(Cl)cc2)CNC1 (stereo unspecified)
- GI50: 3.2 µM
- TGI: 12.3 µM

Compound: CCOP(C)(=O)C(Nc1ccc(F)cc1)c1ccc(F)cc1 (stereo unspecified)
- TGI: > 100 µM

Compound: CC(=O)O[C@H]1[C@@H](N2CCN(C)CC2)C[C@H]2[C@@H]3CC=C4C[C@@H](N5CCCC5)CC[C@]4(C)[C@H]3CC[C@@]21C
- TGI: > 100 µM

Compound: O=c1[nH]c(=O)n(C2CC(O)C(CO)O2)cc1C#Cc1cc(F)cc(F)c1 (stereo unspecified)
- TGI: > 100 µM

Compound: Oc1cc2ccccc2cc1-c1n[nH]c(=S)n1-c1ccc(Cl)cc1
- GI50: 66.6 µM
- TGI: > 100 µM

Compound: N#CC(c1cc(Cl)ncn1)c1nc2ccccc2s1 (stereo unspecified)
- TGI: 23.7 µM

Compound: CCCN1CCN(c2ccc3nc(-c4ccc5nc(-c6ccc(OCC)c(OCC)c6)[nH]c5c4)[nH]c3c2)CC1
- GI50: 0.818 µM
- TGI: 2.57 µM

Compound: CCC(/C(=N\Nc1c(Cl)cc(Cl)cc1Cl)c1ccccc1)n1ccnc1C (stereo unspecified)
- TGI: 27.5 µM

Compound: CC(C)(O)[C@H](CCO)O[Si](c1ccccc1)(c1ccccc1)C(C)(C)C
- TGI: 30.3 µM

Compound: O=C1c2cccnc2C(=O)c2c1c(C(=O)OCCN1CCOCC1)c1ccccn21
- GI50: 0.0476 µM
- TGI: 1.43 µM

Compound: CC/C=C\C/C=C\C[C@H]1C/C=C2/C(=O)C=C[C@H]2C/C=C\CCC(=O)O1
- GI50: 4.37 µM
- TGI: > 14.3 µM

Compound: CC1(C)O[C@@H]2[C@@H]3OC(=O)C[C@@H]3[C@@H](COCc3ccccc3)[C@@H]2O1
- TGI: > 100 µM

Compound: CN(C(=O)c1cccs1)C(=S)N1CCN(c2ccccc2)CC1
- TGI: > 100 µM

Compound: CC(=O)OC1COC(Nn2c(=O)[nH]c3ccccc3c2=O)C(OC(C)=O)C1OC(C)=O (stereo unspecified)
- TGI: > 100 µM

Compound: O=C(c1ccc2c3c(ccc(C(=O)C(F)(F)F)c13)CC2)C(F)(F)F
- TGI: > 100 µM

Compound: Cc1cc2c(c(N)c1C)C(=O)c1ccccc1C2=O
- TGI: > 100 µM

Compound: Cc1nn(-c2ccc(Br)cc2)c(C)c1CC(=O)c1cc(O)ccc1O
- GI50: 9.47 µM
- TGI: 45.2 µM

Compound: C[C@@H]1OC(=O)/C(=C\N(C)C)[C@H]2CC(=O)N(CCc3cn(S(=O)(=O)C(F)(F)F)c4ccccc34)C[C@H]12
- TGI: > 100 µM

Compound: CCc1ccc(Nc2cc(C)nc3nc(C)nn23)cc1
- GI50: > 100 µM
- TGI: > 100 µM

Compound: CCNCCCCNCC
- TGI: > 3750 µM

Compound: S=C(N/N=C(/c1ccccc1)c1ccccn1)Nc1cccc(Cl)c1
- GI50: 2.12 µM
- TGI: 2.71 µM and 18.4 µM

Compound: CC1=C(C)C(=O)OC([C@](C)(O)[C@]2(O)CC[C@@]3(O)[C@@H]4C[C@H]5O[C@]56CC=CC(=O)[C@]6(C)[C@H]4CC[C@]23COC(=O)c2ccc(C)o2)C1 (stereo partly specified)
- TGI: > 21.3 µM

Compound: COc1ccc(CC2C3=C(CCCC3)CCN2C)cc1 (stereo unspecified)
- TGI: > 100 µM

Compound: Cc1nn(C)c2c1C(=O)N(C)CC(=O)N2C
- TGI: > 100 µM

Compound: O=[N+]([O-])c1ccc(-c2cn(-c3ccc(Cl)cc3)cn2)cc1
- TGI: > 100 µM

Compound: CC1OC(OC2CC(O)(C(=O)CO)Cc3c(O)c4c(c(O)c32)C(=O)c2ccccc2C4=O)CC(N)C1O (stereo unspecified)
- TGI: 1.28 µM

Compound: C/C(=N\Nc1nc2ccccc2o1)c1ccncn1
- TGI: > 100 µM

Compound: CN(C)/C(N)=N/C(N)=S
- TGI: > 100 µM

Compound: CCC/C(=N\NC(=O)c1cc2ccccc2cc1O)C(CC)C(=O)CCC(=O)N(Cc1ccccc1)Cc1ccccc1 (stereo unspecified)
- TGI: > 100 µM

Compound: O=S(=O)(NCCCNc1cc(-c2cn(-c3ccccc3)nc2-c2cccc(O)c2)ccn1)c1ccc(Cl)cc1
- GI50: 2.9 µM
- TGI: 20.1 µM

Compound: CC(=O)Nc1sc2c(c1-c1nc3ccccc3s1)CNC2
- GI50: 2.46 µM
- TGI: 14.9 µM

Compound: CC[C@@]1(O)C(=O)OCc2c1cc1n(c2=O)Cc2c-1nc1ccccc1c2/C=N/OC(C)(C)C
- GI50: 0.043 µM
- TGI: 8.36 µM

Compound: CC(=O)c1ccc(NCN2C(=O)c3ccccc3C2=O)cc1
- TGI: > 100 µM

Compound: COc1cc2c3c(c4c5ccccc5[nH]c4c2c(OC)c1OC)C(=O)N(CCN1CCCCC1)C3=O
- GI50: 0.712 µM
- TGI: 2.9 µM

Compound: CCCCCC(/C=N/N)C(O)(C(F)(F)F)C(F)(F)F (stereo unspecified)
- TGI: > 10 µM

Compound: CCN1CCN(C(=O)[C@]23CCC(C)(C)C[C@@H]2C2=CC[C@@H]4[C@@]5(C)C/C(=C/c6cccnc6)C(=O)C(C)(C)[C@@H]5CC[C@@]4(C)[C@]2(C)CC3)CC1
- GI50: 2.87 µM
- TGI: 9.25 µM

Compound: COC(=O)NN1C(=O)C(=P(c2ccccc2)(c2ccccc2)c2ccccc2)C(C(=O)OC)=C1C
- TGI: > 100 µM
